# Measurements reported in PMC4336329 (PLoS ONE, 2015).
# In all, about 310,000 compounds went through this assay and about 14,000 (4.5%) showed an effect of 50% or more. The effect is printed as a negative number. This is one part of the list.
# Biological target: human ether-à-go-go-related gene (hERG) potassium channel (human, UniProt Q12809)
# Experiment: primary screen, population patch clamp on CHO cells stably expressing hERG
# 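Also: peak tail current of the secondary pulse compared with the same well before compound.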
# Chain of human ether-à-go-go-related gene (hERG) potassium channel (Q12809 whole entry, looked up): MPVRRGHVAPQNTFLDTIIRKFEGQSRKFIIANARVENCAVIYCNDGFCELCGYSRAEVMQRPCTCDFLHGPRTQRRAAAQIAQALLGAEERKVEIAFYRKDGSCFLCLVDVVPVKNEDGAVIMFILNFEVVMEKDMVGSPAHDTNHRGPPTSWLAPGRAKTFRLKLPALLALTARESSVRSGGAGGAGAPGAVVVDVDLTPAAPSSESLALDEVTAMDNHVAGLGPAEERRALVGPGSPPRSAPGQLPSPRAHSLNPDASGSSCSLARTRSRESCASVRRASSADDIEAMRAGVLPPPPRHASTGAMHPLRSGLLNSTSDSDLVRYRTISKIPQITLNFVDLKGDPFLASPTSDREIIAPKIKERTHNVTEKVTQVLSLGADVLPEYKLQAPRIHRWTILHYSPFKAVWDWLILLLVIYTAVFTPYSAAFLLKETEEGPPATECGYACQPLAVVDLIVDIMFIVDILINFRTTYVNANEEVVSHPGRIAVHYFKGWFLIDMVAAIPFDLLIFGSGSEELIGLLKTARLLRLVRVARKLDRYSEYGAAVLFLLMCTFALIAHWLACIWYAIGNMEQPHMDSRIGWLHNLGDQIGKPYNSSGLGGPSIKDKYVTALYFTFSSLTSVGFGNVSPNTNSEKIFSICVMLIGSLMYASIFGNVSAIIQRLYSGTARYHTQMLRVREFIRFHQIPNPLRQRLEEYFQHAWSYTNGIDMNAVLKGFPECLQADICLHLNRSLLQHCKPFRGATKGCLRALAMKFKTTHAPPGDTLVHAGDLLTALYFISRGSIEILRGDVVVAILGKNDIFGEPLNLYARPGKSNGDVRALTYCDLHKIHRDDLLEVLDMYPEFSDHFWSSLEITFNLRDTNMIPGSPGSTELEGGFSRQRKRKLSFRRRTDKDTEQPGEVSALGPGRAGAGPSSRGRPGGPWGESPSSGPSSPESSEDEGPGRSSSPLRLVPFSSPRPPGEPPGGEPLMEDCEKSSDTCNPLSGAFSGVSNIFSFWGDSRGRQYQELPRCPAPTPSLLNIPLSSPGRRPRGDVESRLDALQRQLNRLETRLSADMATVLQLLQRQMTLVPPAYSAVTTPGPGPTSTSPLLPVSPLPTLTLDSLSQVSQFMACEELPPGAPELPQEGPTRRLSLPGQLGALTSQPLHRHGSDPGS
row,Compound,"hERG current change (%, negative = inhibition) at 10uM [%]"
1,COc1ccc(CNCc2c(F)cccc2F)cc1OC.O=C(O)C(=O)O,3.43
2,COc1cccc(CN(C)C(=O)c2ccccc2Sc2ccccc2C#N)c1OC,-16.6
3,NS(=O)(=O)c1ccc(CNC(=O)c2scc3c2CCCC3)cc1,-18.8
4,CCc1ccccc1NC(=O)CSc1nnc(-c2ccncc2)o1,0.695
5,O=C(COC(=O)Cc1ccsc1)Nc1cccc(Cl)c1,-8.02
6,CS(=O)(=O)Nc1ccc(-c2n[nH]c(=S)n2-c2ccccc2)cc1,-4.45
7,CCN(CC)C(=O)c1ccc(S(=O)(=O)N2CCC(c3nc4ccccc4s3)CC2)cc1,-8.31
8,CCOc1ccc(OCC(=O)Nc2ccc(OC)cc2[N+](=O)[O-])cc1,3.3
9,COc1cccc(NC(=O)C2CCC(CNS(=O)(=O)c3cccs3)CC2)c1 (centres unmarked),7.92
10,Cc1nc(-c2ccccc2)nc2sc(C(=O)c3ccc(F)cc3)c(N)c12,5.03
11,CCOc1ccc(Nc2nc(N3CCCCC3)nc(N3CCCCC3)n2)cc1,4.1
12,COc1ccc(N(C(=O)Cn2nnc3ccccc32)C(C(=O)NC(C)(C)C)c2ccc(OC)c(O)c2)cc1 (centres unmarked),3.1
13,NC(=S)N=Nc1c(O)n(Cc2ccc(Br)cc2)c2ccccc12,15.2
14,Cc1c(CNC2CCCC2)c(C(=O)O)c(C)n1Cc1ccccc1,2.8
15,CCOC(=O)/C=C/C(=O)Nc1ccc(S(=O)(=O)Nc2nccs2)cc1,9.64
16,COc1ccc(NS(=O)(=O)c2csc(C(=O)Nc3ccccc3)c2)cc1,10.8
17,CCC1(C)NC(=O)N(CC(=O)N2CCC(Cc3ccccc3)CC2)C1=O (centres unmarked),3.65
18,O=C(c1ccc(Cl)cc1)c1ccc(OCC(O)CN2CCCCC2)cc1 (centres unmarked),-75.1
19,COC(=O)c1ccc2c(=O)n(-c3ccccc3)c(=S)[nH]c2c1,19.1
20,N#Cc1ccc(NC(=O)Cn2cnc(S(=O)(=O)N3CCCC3)c2)cc1,22.3
21,CN(C(=O)CCS(=O)(=O)c1cc2c(cc1Cl)NC(=O)CO2)C1CCCCC1,-38.4
22,CC(=NCc1ccco1)c1c(C)[nH]n(-c2nc3ccccc3s2)c1=O,3.78
23,CC(C(=O)Nc1ccc2c(c1)OCCO2)N(c1ccccc1)S(C)(=O)=O (centres unmarked),-2

row,Compound,"hERG current change (%, negative = inhibition) at 10uM [%]"
1,CCCCCCCCC(=O)N/N=C(\C)c1ccco1,6.19
2,COc1ccc(S(=O)(=O)[O-])cc1P(=O)(c1ccccc1)c1ccccc1.[Na+],8.93
3,CC(C)CNC(=O)c1cccc(NC(=O)Cc2ccc(Br)cc2)c1,-1.89
4,COc1ccc(C2=NN(CC(=O)NCc3ccco3)C(=O)CC2)cc1,5.85
5,CCCCc1ccc(NC(=S)NCc2cccs2)cc1,23.1
6,CC(=O)N1CCN(c2nc(-c3cccs3)nc3ccccc23)CC1,-63.2
7,CCCCNC(=S)N/N=C/c1ccc(C#N)cc1,19.3
8,CC(C)(C)NC(=O)COC(=O)c1cc(F)c(F)cc1Cl,3.04
9,CS(=O)(=O)N(CC(=O)NCc1ccco1)c1ccc(Cl)c(C(F)(F)F)c1,-7.47
10,COc1ccc(-c2cc(C(=O)O)nc3ccc4ccccc4c23)cc1OC,12.6
11,CN(C)S(=O)(=O)c1ccc(N2CCCC2)c(C(=O)NNC(=O)COc2ccccc2F)c1,-61.4
12,O=C(NCCCn1ccnc1)c1ccco1,-4.47
13,CSCCC(NC(=O)c1cncc(Br)c1)C(=O)O (centres unmarked),2.23
14,CCCNC(=O)COc1ncnc2sccc12,2.7
15,CCN1CCSc2ccc(C(=O)NCc3ccccc3C)cc21,-3.53
16,COc1ccc(OC)c(C2C(C(=O)c3ccco3)=C(O)C(=O)N2CCN2CCOCC2)c1 (centres unmarked),12.7
17,O=C(c1cccc(NS(=O)(=O)c2ccccc2)c1)N1CCCCC1,-2.47
18,CN1Cc2ccccc2CC1CNCc1c(C(=O)N2CCCC2)nc2ccccn12 (centres unmarked),-73.5
19,Cc1ccc(-n2nnnc2SCc2ccc(C(=O)O)cc2)cc1C,-70.7
20,CCOC(=O)N1CCN(C(=O)Nc2ccccc2Cl)CC1,9.66
21,CC(C)(C)NS(=O)(=O)c1cc(C(=O)Nc2sccc2C#N)ccc1Cl,4.98
22,CCOc1ccccc1NC(=O)Nc1ccc(Cl)cc1,-10.1
23,Cc1n(CC(O)COC2CCCCC2)c2ccccc2[n+]1C.[I-] (centres unmarked),4.89

row,Compound,"hERG current change (%, negative = inhibition) at 10uM [%]"
1,CC(=O)c1c(C)[nH]c(C(=O)OCC(=O)N(C)C)c1C,-2.26
2,Cc1cccc(N2CCN(C(=O)c3ccc4c(c3)CCN4S(C)(=O)=O)CC2)c1C,-14.8
3,O=[N+]([O-])c1cccnc1Oc1ccc(OCc2ccccc2)cc1,3.86
4,COc1cc(N)cc(NC(=O)c2ccncc2)c1,15.5
5,CCCCc1nnc(NC(=O)CSc2nc(=O)cc(N)n2-c2ccccc2)s1,-24
6,CS(=O)(=O)N(CCc1ccccc1)CC(=O)N1CCN(c2ccccc2)CC1,15
7,Cn1c(SCC(=O)Nc2ccc3c(c2)n(C)c(=O)n3C)nnc1-c1ccncc1,43.5
8,NC(=O)NC(=O)COC(=O)CCCc1c[nH]c2ccccc12,5.09
9,C[C@H](NC(=O)c1ccc(Br)cc1)C(=O)NCc1ccc(S(N)(=O)=O)cc1,15
10,Cc1ccccc1CNC(=O)CN(c1ccccc1Cl)S(C)(=O)=O,-8.64
11,COc1cc(NC(=O)C(C)Oc2ccccc2)c(OC)cc1NC(=O)c1ccccc1 (centres unmarked),7.29
12,Cc1ccc(NC2=NC(c3ccccc3)n3c(nc(C)cc3=O)N2)c(C)c1 (centres unmarked),-1.11
13,O=C(O)C1CCCN(S(=O)(=O)c2ccc(Br)cc2)C1 (centres unmarked),-2.36
14,CCCCn1c(N)c(N(CCOC)C(=O)c2ccc(Br)o2)c(=O)[nH]c1=O,19.1
15,Cc1cc(NC(=O)CCN2C(=O)C3C4C=CC(C4)C3C2=O)c2ccccc2n1 (centres unmarked),7.51
16,CC1=C(C(=O)Nc2ccccc2)C(c2coc3ccccc3c2=O)C2=C(CCCC2=O)N1 (centres unmarked),-5.86
17,COc1cc(C)c(Cl)cc1S(=O)(=O)NCC1CCCO1 (centres unmarked),8.14
18,O=S(=O)(/N=C(/Nc1ccccc1)c1ccccc1O)c1ccccc1,-11.3
19,O=S(=O)(Cc1nnnn1-c1ccccc1)c1ccccc1,10.8
20,Cc1ccc(F)cc1NC(=O)c1cnccn1,26.8
21,Cc1ccccc1C(=O)NN1CCOCC1,6.4
22,N#Cc1ccc(OCC(=O)NC(=O)NC2CCS(=O)(=O)C2)cc1 (centres unmarked),-7.71
23,COC(=O)c1c(C)oc2ccc(OC(=O)N3CCOCC3)cc12,-8.62

row,Compound,"hERG current change (%, negative = inhibition) at 10uM [%]"
1,CCN(Cc1ccccc1)C(=O)Cn1c(=O)n(-c2ccc(OC)cc2OC)c(=O)c2c(C)c(C)sc21,11.1
2,Cc1oc(-c2ccccc2F)nc1CS(=O)(=O)CC(=O)NC1CCCC1,-3.47
3,Cc1cccc(C)c1OCC(=O)Nc1ccc(N2CCOCC2)cc1,-4.13
4,CCOc1ccc(N(CC(=O)N2CCCCCC2)S(=O)(=O)c2ccc(F)cc2)cc1,-38
5,Nc1c(N(CCC2=CCCCC2)C(=O)c2ccccc2F)c(=O)[nH]c(=O)n1Cc1ccccc1,15.5
6,c1ccc(C[C@H]2CNCCN2CCc2cccc3ccccc23)cc1,-35.6
7,O=C(NCCO)c1ccc(Cl)c(Cl)c1,-2.23
8,CCOC(=O)N1CCN(C(=O)c2nn(-c3ccc(C)cc3)c(=O)c3c2c2ccccc2n3C)CC1,14.6
9,CCOCCOC(=O)c1[nH]c2c(c1C)C(=O)CC(c1cc(OC)c(OC)c(OC)c1)C2 (centres unmarked),-0.921
10,CC(=O)c1cnn(-c2cc(Oc3cccc(C)c3)ncn2)c1C,18.9
11,COc1ccccc1NC(=O)Cc1nnc(SCC(=O)NC2CCCC2)n1C,7.65
12,CCCCn1c(O)c(C(C)=NCc2cccnc2)c(=O)[nH]c1=O,-23.5
13,CC(=O)Nc1ccc(/C(C)=N/Nc2nc(Nc3cccc4ccccc34)nc(N3CCOCC3)n2)cc1.CCO,5.89
14,Cc1ccnc(SCc2cn3c(C)cc(C)nc3n2)n1,-3.93
15,Cc1cc(NC(=O)CSCC(=O)Nc2nc3ccccc3[nH]2)no1,30.9
16,CC(C)(C)N1CC(C(=O)Nc2ccc(S(N)(=O)=O)cc2)CC1=O (centres unmarked),10.6
17,Cc1ccc(NC(=O)/C(Cl)=C/c2ccccc2)cc1C,-6.65
18,CCN(CC)CCCN(C(=O)c1ccco1)c1nc(-c2ccc(C)cc2)cs1.Cl,-84.1
19,CCCOc1cc(CN2CCCCC2)cc(C(C)=O)c1.Cl,-16.3
20,COCC(C)n1c(=O)sc2ccccc2c1=O (centres unmarked),3.14
